PubChem BioAssay AID720708 (National Center for Advancing Translational Sciences (NCATS), 2013)
Out of some 360,000 compounds screened, about 660 (0.18%) were called active. The inconclusive results got no clear call from the source; some entries with a clear call stand among them for comparison. Calls follow the shape of the dose curve; as a rule, active = well fitted inhibition curve with a large enough effect; inconclusive = small, poorly fitted or top-dose-only effect; inactive = no such curve, though single readings can be large or run the other way. Potencies of inconclusive entries are left out as doubtful fits.

biological target: Rap guanine nucleotide exchange factor 4 (Homo sapiens) (UniProt Q8WZA2); assay: qHTS for Antagonist of cAMP-regulated guanine nucleotide exchange factor 2 (EPAC2): primary screen; conditions: EPAC2 GEF exchange of Rap1B-BODIPY-GDP, fluorescence; activity, negative = inhibition: at 114 µM (top of the series) unless noted; also: nearly all actives have a fitted effect of over 45% in size
Sequence of UniProt Q8WZA2 (Q8WZA2 whole entry, looked up): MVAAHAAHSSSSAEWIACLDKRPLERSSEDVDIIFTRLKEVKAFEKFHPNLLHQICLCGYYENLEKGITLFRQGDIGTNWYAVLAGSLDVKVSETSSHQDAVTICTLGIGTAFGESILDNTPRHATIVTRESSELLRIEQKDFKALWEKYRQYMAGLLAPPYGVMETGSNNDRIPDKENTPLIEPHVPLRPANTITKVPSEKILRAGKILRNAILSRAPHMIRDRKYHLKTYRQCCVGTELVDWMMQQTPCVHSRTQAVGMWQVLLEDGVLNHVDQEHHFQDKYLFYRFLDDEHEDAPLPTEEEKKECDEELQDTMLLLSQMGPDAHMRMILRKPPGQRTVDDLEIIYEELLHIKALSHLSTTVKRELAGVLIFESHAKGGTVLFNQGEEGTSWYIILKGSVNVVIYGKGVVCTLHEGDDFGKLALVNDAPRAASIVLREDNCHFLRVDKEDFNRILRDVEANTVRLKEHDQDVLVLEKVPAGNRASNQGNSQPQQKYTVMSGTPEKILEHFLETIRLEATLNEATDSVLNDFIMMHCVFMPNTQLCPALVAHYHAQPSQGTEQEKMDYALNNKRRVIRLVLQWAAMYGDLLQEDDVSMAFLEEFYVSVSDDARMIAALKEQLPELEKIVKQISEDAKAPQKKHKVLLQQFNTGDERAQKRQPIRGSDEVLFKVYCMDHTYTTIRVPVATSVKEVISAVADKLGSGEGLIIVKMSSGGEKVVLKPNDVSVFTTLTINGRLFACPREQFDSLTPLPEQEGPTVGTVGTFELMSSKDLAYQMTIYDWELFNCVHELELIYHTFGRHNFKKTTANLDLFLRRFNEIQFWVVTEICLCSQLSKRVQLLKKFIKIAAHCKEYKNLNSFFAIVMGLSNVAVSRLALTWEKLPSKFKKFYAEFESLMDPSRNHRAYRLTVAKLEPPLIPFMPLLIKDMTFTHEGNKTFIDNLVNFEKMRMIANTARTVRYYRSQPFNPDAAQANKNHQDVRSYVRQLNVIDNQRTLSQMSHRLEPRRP
% is scaled to controls: 0 for no effect and ±100 for the full control effect; potency is read from the fitted curve at half-maximal effect; tags tell the direction and shape of the fitted curve.

Row | SMILES | activity, negative = inhibition | Potency
1 | Cc1csc(C(C)NC(=O)c2ccc(OC3CCN(CCc4ccccc4)CC3)cc2)n1 (stereo not given) | inactive: -6.83% | 
2 | Brc1ccc(CSc2nccn2-c2ccccc2)cc1 |  | inconclusive [inhibitor, partial curve]
3 | CC(C(=O)Nc1cc([N+](=O)[O-])ccc1Cl)N1CCN(c2ccc(O)cc2)CC1 (stereo not given) | inactive: -2.23% | 
4 | CCN(CC(=O)NCc1ccc(Cl)cc1)C(=O)C1CCN(S(=O)(=O)c2ccc(OC)c(OC)c2)CC1 |  | inconclusive [inhibitor, single point]
5 | Cc1ccc(S(=O)(=O)N(C)C)cc1NC(=O)COC(=O)c1ccc2c(c1)OCO2 | inactive: -9.98% | 
6 | O=C(NCc1cccc(Cl)c1)c1ccc(-c2csnn2)cc1 |  | inconclusive [inhibitor, partial curve]
7 | C#CCSc1cc(C(F)(F)F)nc(-c2ccccn2)n1 |  | inconclusive [inhibitor, partial curve]
8 | CCSc1nc(-c2cccs2)nc2ccccc12 |  | inconclusive [inhibitor, partial curve]
9 | CCN(CC)c1nc2cc(OC)ccc2cc1C#N |  | inconclusive [inhibitor, partial curve]
10 | COc1ccc2c(=O)c3c(=O)n(Cc4ccco4)c(-c4ccco4)nc3oc2c1 | inactive: -7.8% | 
11 | CCc1n[nH]c(=S)n1/N=C/C(C)=C\c1ccccc1 |  | inconclusive [inhibitor, partial curve]
12 | O=C(N/N=C/c1c(O)n(Cc2ccccc2)c(=O)c2ccccc12)c1cccnc1 | inactive: -15.2% | 
13 | COc1ccc(C(=O)Oc2c(CN3CCOCC3)cc(Cl)c3cccnc23)cc1OC | inactive: 3.54% | 
14 | Cn1c(-c2csc(-c3ccccc3)n2)n[nH]c1=S | inactive: 2.95% | 
15 | COc1ccc(OC)c(NC(=O)CCOc2cccc(C)c2)c1 |  | inconclusive [inhibitor, partial curve]
16 | CCCc1nc2ccc(C(=O)OC)cn2c1Cc1ccc(C)cc1 |  | inconclusive [inhibitor, full curve]
17 | CC(C)C(=O)NC(c1ccco1)c1c(O)ccc2ccccc12 (stereo not given) |  | inconclusive [inhibitor, single point]
18 | CS(=O)(=O)Nc1ccccc1N=C(c1ccccc1)c1ccccc1 |  | inconclusive [inhibitor, full curve]
19 | CCCCCN(C(=O)CN1CCC(Cc2ccccc2)CC1)c1c(N)n(CCCC)c(=O)[nH]c1=O |  | inconclusive [inhibitor, partial curve]
20 | Cc1ccc2nc(NNC(=O)c3ccc4c(c3)OCCO4)sc2c1 |  | inconclusive [inhibitor, full curve, poor fit]
